PubChem BioAssay AID1625 (Sanford-Burnham Center for Chemical Genomics, 2009)
Several values for one entry are separate records, joined by “and”; a condition that tells them apart may be missing. Equal entries are not always repeated. The list shows a part of the results. The main result of the screen is listed elsewhere. These columns were measured beside it and carry no call. The list favours compounds with an active or inconclusive main result.

Experiment: insulin promoter activators in MIN6 cells, imaging, high-content screening, mouse beta cells (AID 1625);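 also: total cells summed across four imaged fields per well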
Conditions: MIN6 insulin promoter-GFP reporter, measured here: cytotoxicity, nuclei count, at 5 µM
`CCN(CC)Cc1cc2[nH]c3c4ccc(Cl)cc4ncc3c2cc1OC` showed a cell count of 403 cells.
`C(#Cc1ccccc1)C[N+]1(CC#Cc2cccc3ccccc23)CCCC1` gave a cell count of 194 cells.
Work on `CCCCCCOC(=O)C[N+](C)(C)CCOC1CC2CCC1(C)C2(C)C` (stereo not drawn) yielded a cell count of 427 cells.
For `COc1cc(CNCc2ccccn2)ccc1OCc1c(Cl)cccc1Cl`, the cell count was 488 cells.
`CSc1nc2ccccc2n1Cc1cccc([N+](=O)[O-])c1` showed a cell count of 463 cells.
`COC(CNC(=O)c1ccc(Cn2c(=S)[nH]c3cc4c(cc3c2=O)OCO4)cc1)OC` gave a cell count of 1110 cells.
In the case of `CCCCCc1ccc(OCCCC[n+]2ccc(C)cc2)c(CCCCC)c1`, the cell count is reported as 434 cells.
`Cc1cc(C)n2nc(SCC(=O)c3cc(C)n(-c4cc(C)on4)c3C)nc2n1` showed a cell count of 401 cells.
Work on `C/C(=N\NC(=O)c1ccco1)c1ccc(NC(=O)c2ccccc2)cc1` yielded a cell count of 489 cells.
`CCCCN1C(=O)/C(=C/C=C2\SCCN2C)SC1=S` gave a cell count of 1340 cells.
`CCc1ccccc1NC(=O)CN(C)C(=O)Cn1ncc(Cl)c(Cl)c1=O` gave a cell count of 434 cells.
`CCC(C)(C(=O)NC1CCCC1)N(C(=O)CNC(C)=O)c1ccccc1` (stereo not drawn) showed a cell count of 1250 cells.
Molecule `c1ccc(-c2csc3ncnc(NCCCN4CCOCC4)c23)cc1` has a cell count of 463 cells.
`CCOC(=O)c1cnc(-n2nc(C)cc2C)nc1NC1CCCCC1` showed a cell count of 420 cells.
With `CCCCCc1cc(=O)oc2c(C(CCN3CCCC(C)C3)c3ccc4c(c3)OCO4)c(OC)cc(OC)c12` (stereo not drawn) the cell count was 288 cells.
Molecule `CN(C)C(=O)C1C2NC(=S)N(c3cccc(Cl)c3)C1(C)Oc1ccc(Cl)cc12` (stereo not drawn) has a cell count of 1430 cells.
`O=C(Nc1ccc([N+](=O)[O-])cc1)Nc1ccc(OC(F)F)c(Cl)c1` showed a cell count of 338 cells.
`O=C(/C(=C/c1ccc(Cl)cc1)c1nc2ccccc2[nH]1)c1cccs1` showed a cell count of 442 cells.
`N=c1c2c(n(Cc3ccc(Cl)c(Cl)c3)c3c1CCC3)CCCC2` gave a cell count of 319 cells.
`CCOC(=O)c1c(CSC(=N)N)n(-c2ccc(Br)cc2)c2cc(Br)c(OC(C)=O)cc12` gave a cell count of 315 cells.
`C[n+]1c2n(c3ccccc31)N=C(c1cc(C(C)(C)C)c(O)c(C(C)(C)C)c1)CS2` showed a cell count of 203 cells.
Work on `C=CCNC(=O)/C(=C\c1ccc(Br)cc1)NC(=O)c1ccccc1OC` yielded a cell count of 870 cells.
With `C=CCn1c(C)cc(C(=O)Cn2ncc(Cl)c(Cl)c2=O)c1C` the cell count was 393 cells.
`CCOC(=O)c1ccc(NC(=O)Cn2cnc3cc(C)c(C)cc32)cc1` gave a cell count of 381 cells.
For `COc1cccc(C(=O)Nc2ccccc2C(=O)N2CCCC2)c1`, the cell count was 781 cells.
With `O=C(c1cc2ccccc2oc1=O)N(c1ccc(Cl)cc1)C1C=CS(=O)(=O)C1` (stereo not drawn) the cell count was 439 cells.
Work on `O=C(N/N=C/c1ccco1)c1cc(C2CC2)nc2ccccc12` yielded a cell count of 465 cells.
With `Cc1ccc(S(=O)(=O)C(C#N)c2nc3ccccc3nc2N2CCC(C)CC2)cc1` (stereo not drawn) the cell count was 1190 cells.
Molecule `O=C1S/C(=C\c2ccc(N3CCOCC3)o2)C(=O)N1c1ccccc1` has a cell count of 1260 cells.
For `N=C1N(/N=C/c2ccccc2)C(=Nc2ccccc2)C(=S)N1c1ccccc1`, the cell count was 466 cells.
For `Cc1ccc(S(=O)(=O)Cc2ccc(C(=O)N3CCc4ccccc4C3)o2)cc1`, the cell count was 439 cells.
`COc1ccc(-c2c[n+]3c(n2-c2ccc(C)cc2)CCCCC3)cc1` gave a cell count of 290 cells.
Work on `CCN(CC)c1ccc2cc(-c3nc(-c4ccc(OC)cc4)cs3)c(=O)oc2c1` yielded a cell count of 1480 cells.
In the case of `CCCN(CCC)S(=O)(=O)c1ccc(C(=O)OCCN2C(=O)c3cccc4c(N5CCOCC5)ccc(c34)C2=O)cc1`, the cell count is reported as 1130 cells.
`COc1ccccc1-n1c(=O)[nH]c2c(C(N)=O)nc(-c3cccnc3)nc21` showed a cell count of 463 cells.
`CCc1ccc(C2C(C#N)=C(N)C(C#N)(C#N)C3=CCC(C(C)(C)C)CC32)cc1` (stereo not drawn) gave a cell count of 321 cells.
Work on `COc1ccc(NC(=O)CSc2nnc(-c3cccs3)n2C)cc1OC` yielded a cell count of 1160 cells.
Molecule `CC(=O)c1cc(F)c(N2CCCCCC2)cc1C` has a cell count of 463 cells.
With `CC(C)N1CCc2c(sc(NC(=O)c3cc4cc([N+](=O)[O-])ccc4s3)c2C(N)=O)C1` the cell count was 1410 cells.
`CCOC(=O)c1sc2nc(C)c3c(c2c1N)CC(C)(C)OC3` gave a cell count of 472 cells.
In the case of `CCOc1ccc(OCc2ccc(C(=O)N/N=C(\C)c3ccccn3)cc2)cc1`, the cell count is reported as 296 cells.
In the case of `CCCCCCCCCCCCCCCCn1cc[n+](C)c1`, the cell count is reported as 239 cells and 332 cells.
With `O=S(=O)(Nc1cc2nc3ccccc3nc2n1Cc1ccccc1)c1ccc(Cl)cc1` the cell count was 1290 cells.
Molecule `CCOC(=O)Cn1c(=O)oc2cc(S(=O)(=O)NC(C)c3ccccc3)ccc21` (stereo not drawn) has a cell count of 478 cells.
In the case of `CCN(CC)S(=O)(=O)c1cccc(C(=O)N[C@H](C(=O)O)C(C)C)c1`, the cell count is reported as 282 cells.
In the case of `CCOC(=O)c1[nH]c2c(c1-c1ccc(OC)cc1)C(=O)CC(c1ccc(OC)c(OC)c1)C2` (stereo not drawn), the cell count is reported as 398 cells.
In the case of `O=S(=O)(Cc1ccc(Cl)cc1)c1ccccc1-c1nnc(-c2ccccc2)o1`, the cell count is reported as 1460 cells.
Molecule `Cc1nc2ccccc2c2oc(C(=O)Nc3ccc4c(c3)OCCO4)cc12` has a cell count of 400 cells.
`COC(=O)c1cc(NC(=O)c2ccccc2)c(=O)oc1/C=C/Nc1ccc(Oc2ccccc2)cc1` showed a cell count of 1220 cells.
`c1ccc(-c2csc(-n3cnnn3)n2)cc1` gave a cell count of 1070 cells.
Molecule `CCN(CC)c1ccc(/C=N/N(c2ccccc2)c2ccccc2)c(O)c1` has a cell count of 465 cells.
Work on `COC(=O)c1sc2ccccc2c1-n1cccc1C(=O)C(=O)Nc1ccc(F)cc1` yielded a cell count of 1580 cells.
In the case of `Cc1ccc(NC2=C/C(=N\S(=O)(=O)c3cccs3)c3ccccc3C2=O)c(C)c1`, the cell count is reported as 348 cells.
`CCN(CC)c1ccc2cc(C(=O)Nc3ccccn3)c(=O)oc2c1` showed a cell count of 1230 cells.
`Cc1cc(/C=C2\NC(=S)N(C)C2=O)ccc1N1CCCC1` gave a cell count of 1460 cells.
Work on `CCOc1ccc(-c2c[n+]3c(n2-c2ccccc2)CCCCC3)cc1` yielded a cell count of 403 cells.
With `Cn1ncc2c1ncn1nc(CCc3ccccc3)nc21` the cell count was 1470 cells.
`Cc1ccc(S(=O)(=O)Nc2ccc3ncccc3c2)cc1` showed a cell count of 341 cells.
With `Cc1ccc(SCc2cc(-c3ccc(Cl)cc3)no2)cc1` the cell count was 1320 cells.
`N=c1c2c(n(Cc3ccccc3)c3c1CCC3)CCC2` gave a cell count of 201 cells.
Molecule `Cc1ccc(S(=O)(=O)CCSc2nc(C)cc(C(F)(F)F)c2C#N)cc1` has a cell count of 853 cells.
Molecule `COc1cc(CNCc2ccco2)ccc1OCc1ccccc1` has a cell count of 418 cells.
Molecule `COc1ccc2nc(SCC(=O)Nc3c(C)cccc3C)[nH]c2c1` has a cell count of 1420 cells.
Work on `O=[N+]([O-])c1ccc(-c2nc(C(Cl)Cl)c3ccccc3n2)cc1` yielded a cell count of 333 cells.
`O=C(Nc1ccc(S(=O)(=O)N2CCOCC2)cc1)c1ccc(CN2CCc3ccccc3C2)cc1` gave a cell count of 160 cells.
Molecule `CC[n+]1c(/C=C2\Sc3ccccc3N2C)ccc2cccc(C)c21` has a cell count of 310 cells.
In the case of `Cc1cc(C)c2nc3sc(C(=O)N4CCOCC4)c(N)c3cc2c1`, the cell count is reported as 393 cells.
In the case of `O=C1c2cccc3c(O)ccc(c23)C(=O)N1Cc1ccco1`, the cell count is reported as 1390 cells.
Molecule `COc1ccc(CN=Cc2[nH]c3ccc(Br)c(Cl)c3c2O)cc1` has a cell count of 1780 cells.
In the case of `N#C/C(=C\c1ccc(N2CCOCC2)o1)c1nc2ccccc2[nH]1`, the cell count is reported as 1420 cells.
`CCN1CCN(C2=CC3=CC(=C(C#N)C#N)CCC3CC2)CC1` (stereo not drawn) gave a cell count of 1300 cells.
For `OCCCNc1cc(-c2ccnc(Nc3cccc(Cl)c3)n2)ccn1`, the cell count was 322 cells.
Molecule `Cc1ccc2[nH]c3c(N4CCN(Cc5ccc6c(c5)OCO6)CC4)ncnc3c2c1` has a cell count of 208 cells.
`O=C(/C=C/c1c(F)cccc1Cl)Nc1ccncc1` showed a cell count of 451 cells.
In the case of `Cc1ccc(/C(=N\O)c2oc3c(C)c4oc(=O)cc(C)c4cc3c2C)cc1`, the cell count is reported as 472 cells.
Molecule `Nc1ncnc2nc(SCCOc3ccc(Cl)cc3)[nH]c12` has a cell count of 462 cells.
Work on `CCn1c(SCC(=O)OC(C)C)nnc1-c1cccc(Cl)c1` yielded a cell count of 288 cells.
`CCCN1CC=C2C(C#N)=C(N)C(C#N)(C#N)C(c3cccc(OC)c3OC)C2C1` (stereo not drawn) gave a cell count of 1910 cells.
Molecule `CCCCN(C)CC(O)Cn1cc(/C=C/C(=O)c2cccs2)c2ccccc21` (stereo not drawn) has a cell count of 1290 cells.
In the case of `Cc1onc(-c2ccccc2)c1C(=O)NC(=S)NNC(=O)c1ccc(O)cc1`, the cell count is reported as 469 cells.
With `O=C(NCc1cn2ccccc2n1)c1ccco1` the cell count was 1920 cells.
Molecule `NS(=O)(=O)c1cccc2cccnc12` has a cell count of 992 cells.
With `CCCCOCCCNc1ncnc2c1[nH]c1ccccc12` the cell count was 432 cells.
Work on `N#C/C(=C\c1ccc(N2CCCCC2)o1)C(N)=O` yielded a cell count of 1390 cells.
`O=c1c(Cl)c(Cl)cnn1Cc1nnc(-c2ccccc2Br)o1` gave a cell count of 200 cells.
For `CCC(CO)[n+]1c(C)cc(/C=C2\Sc3ccccc3N2Cc2ccccc2)cc1C` (stereo not drawn), the cell count was 475 cells.
With `O=C(Nc1ccc2c(c1)CCC2)C1CCN(c2c3c(nc4ncnn24)CCC3)CC1` the cell count was 307 cells.
`CCOC(=O)CNC(=O)/C=C/c1c(Cl)cccc1Cl` gave a cell count of 380 cells.
For `CCCCCCCCn1c2c(c(=N)c3c1CCC3)CCCC2`, the cell count was 302 cells.
In the case of `CCC(=O)NC(c1ccccc1OC)c1ccc2cccnc2c1O` (stereo not drawn), the cell count is reported as 251 cells.
Molecule `COc1ccc2nc(SCC(C)=O)c(C#N)cc2c1` has a cell count of 1120 cells.
In the case of `CC(C)(C)C(=O)/C(=C\c1cccc([N+](=O)[O-])c1)n1cncn1`, the cell count is reported as 225 cells.
With `Cc1ccc(-c2c[n+](Cc3ccc(Cl)cc3)c3n2CCC3)cc1` the cell count was 421 cells.
`Cc1ccc([N+](=O)[O-])cc1NC(=O)c1cccs1` gave a cell count of 1270 cells.
With `CCOC(=O)c1cnc2sc3c(n2c1=O)CCCC3` the cell count was 301 cells.
For `O=C(Nc1nnc(-c2ccccc2)o1)Nc1ccccc1Cl`, the cell count was 1820 cells.
`Cc1ccc(/C=N/NC(=O)c2cc(C3CC3)nc3ccccc23)o1` gave a cell count of 499 cells.
Molecule `O=C1C(=O)c2c(C(=O)c3ccccc3)coc2-c2ccccc21` has a cell count of 243 cells.
For `CCOc1ccccc1-c1c2cc(O)c(=O)cc-2oc2cc(O)c(O)cc12`, the cell count was 1500 cells.
In the case of `Cc1cccc(N=Nc2ccc(O)c3ncccc23)c1`, the cell count is reported as 420 cells.
`CCOC(=O)c1sc(NC(=O)c2sccc2C)cc1C` gave a cell count of 1020 cells.
In the case of `CCOC(=O)c1nn(-c2ccc(Cl)cc2Cl)c(=N)c(C#N)c1C`, the cell count is reported as 993 cells.
With `COc1ccc(Cl)cc1NC(=O)c1c(-c2ccccc2)noc1C` the cell count was 1330 cells.
With `Cc1ccc(C[n+]2cc(-c3ccc(Cl)cc3)n3c2CCC3)cc1` the cell count was 401 cells.
With `CC(=O)Nc1ccc(NC2=C/C(=N/S(=O)(=O)c3cccs3)c3ccccc3C2=O)cc1` the cell count was 481 cells.
Work on `Cc1cc(N2CCCC2)ccc1/C=C1\NC(=S)N(C)C1=O` yielded a cell count of 1340 cells.
`Clc1ccc(-c2cn(-c3ccc(Cl)cc3)c3[n+]2CCCCC3)cc1` gave a cell count of 430 cells.
Work on `CCOC(=O)c1[nH]c2ccc(OCC)cc2c1NC(=O)CN1CCCC(C)C1` (stereo not drawn) yielded a cell count of 432 cells.
